Laboratory results published in the supplement of paper PMC8728848.
Some of the results follow.

Tests used:
Assay in all cases: glycan array binding signal (z-score within array); higher = stronger binding
Settings in all cases: glycan notation: IUPAC condensed, linker removed
[1] = target: GlcNAc(b1-3)Gal(b1-4)GlcNAc
How it was run: (§1)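 Negative Z-scores can be read as non-binding. The Z-score is calculated within each array and then averaged across arrays of one protein sequence at different concentrations or buffers and across linkers. Arrays, 3228 in all, were curated from the Consortium for Functional Glycomics database and kept only where the protein sequence was available.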

[2] = target: GlcNAc(b1-3)Gal(b1-4)GlcNAc(b1-3)Gal(b1-4)GlcNAc
How it was run: as §1

GlcNAc(b1-3)GalNAc = target: GlcNAc(b1-3)GalNAc
How it was run: as §1

[3] = target: GlcNAc(b1-3)[GlcNAc(b1-6)]Gal(b1-4)GlcNAc
How it was run: as §1

[4] = target: GlcNAc(b1-3)[GlcNAc(b1-6)]GalNAc
How it was run: as §1

[5] = target: GlcNAc(b1-3)[GlcNAc(b1-6)]GlcNAc(b1-4)GlcNAc
How it was run: as §1

[6] = target: GlcNAc(b1-4)Gal(b1-4)GlcNAc
How it was run: as §1

[7] = target: GlcNAc(b1-4)GlcNAc(b1-4)GlcNAc
How it was run: as §1

[8] = target: GlcNAc(b1-4)GlcNAc(b1-4)GlcNAc(b1-4)GlcNAc(b1-4)GlcNAc
How it was run: as §1

[9] = target: GlcNAc(b1-4)GlcNAc(b1-4)GlcNAc(b1-4)GlcNAc(b1-4)GlcNAc(b1-4)GlcNAc
How it was run: as §1

[10] = target: GlcNAc(b1-4)[GlcNAc(b1-6)]GalNAc
How it was run: as §1

[11] = target: GlcNAc(b1-6)Gal(b1-4)GlcNAc
How it was run: as §1

GlcNAc(b1-6)GalNAc = target: GlcNAc(b1-6)GalNAc
How it was run: as §1

Kdn(a2-3)Gal(b1-3)GlcNAc = target: Kdn(a2-3)Gal(b1-3)GlcNAc
How it was run: as §1

Kdn(a2-3)Gal(b1-4)GlcNAc = target: Kdn(a2-3)Gal(b1-4)GlcNAc
How it was run: as §1

[12] = target: Man(a1-2)Man(a1-2)Man(a1-3)Man
How it was run: as §1

[13] = target: Man(a1-2)Man(a1-2)Man(a1-6)[Man(a1-3)]Man
How it was run: as §1

Man(a1-2)Man(a1-3)Man = target: Man(a1-2)Man(a1-3)Man
How it was run: as §1

[14] = target: Man(a1-2)Man(a1-3)[Man(a1-2)Man(a1-6)]Man
How it was run: as §1

[15] = target: Man(a1-2)Man(a1-3)[Man(a1-2)Man(a1-6)]Man(a1-6)[Man(a1-2)Man(a1-2)Man(a1-3)]Man(b1-4)GlcNAc(b1-4)GlcNAc
How it was run: as §1

[16] = target: Man(a1-2)Man(a1-3)[Man(a1-6)]Man(a1-6)[Man(a1-2)Man(a1-3)]Man(b1-4)GlcNAc(b1-4)GlcNAc
How it was run: as §1

[17] = target: Man(a1-2)Man(a1-6)[Man(a1-3)]Man(a1-6)[Man(a1-2)Man(a1-2)Man(a1-3)]Man(b1-4)GlcNAc(b1-4)GlcNAc
How it was run: as §1

Man(a1-3)[Man(a1-6)]Man = target: Man(a1-3)[Man(a1-6)]Man
How it was run: as §1

[18] = target: Man(a1-3)[Man(a1-6)]Man(a1-6)[Man(a1-2)Man(a1-3)]Man(b1-4)GlcNAc(b1-4)GlcNAc
How it was run: as §1

[19] = target: Man(a1-3)[Man(a1-6)]Man(a1-6)[Man(a1-3)]Man(b1-4)GlcNAc(b1-4)GlcNAc
How it was run: as §1

[20] = target: Man(a1-3)[Man(a1-6)]Man(b1-4)GlcNAc(b1-4)GlcNAc
How it was run: as §1

Man(b1-4)GlcNAc = target: Man(b1-4)GlcNAc
How it was run: as §1

Neu5Ac(a2-3)Gal = target: Neu5Ac(a2-3)Gal
How it was run: as §1

[21] = target: Neu5Ac(a2-3)Gal(b1-3)GalNAc
How it was run: as §1

[22] = target: Neu5Ac(a2-3)Gal(b1-3)GalNAc(b1-3)Gal(a1-4)Gal(b1-4)Glc
How it was run: as §1

[23] = target: Neu5Ac(a2-3)Gal(b1-3)GalNAc(b1-3)Gal(b1-4)GlcNAc
How it was run: as §1

[24] = target: Neu5Ac(a2-3)Gal(b1-3)GalNAc(b1-4)[Neu5Ac(a2-3)]Gal(b1-4)Glc
How it was run: as §1

[25] = target: Neu5Ac(a2-3)Gal(b1-3)GalNAc6S
How it was run: as §1

[26] = target: Neu5Ac(a2-3)Gal(b1-3)GlcNAc
How it was run: as §1

[27] = target: Neu5Ac(a2-3)Gal(b1-3)GlcNAc6S
How it was run: as §1

[28] = target: Neu5Ac(a2-3)Gal(b1-3)[Fuc(a1-4)]GlcNAc
How it was run: as §1

[29] = target: Neu5Ac(a2-3)Gal(b1-3)[Fuc(a1-4)]GlcNAc(b1-3)Gal(b1-4)[Fuc(a1-3)]GlcNAc
How it was run: as §1

[30] = target: Neu5Ac(a2-3)Gal(b1-3)[Neu5Ac(a2-3)Gal(b1-4)]GlcNAc
How it was run: as §1

B1: F17eG (Escherichia coli), Q9RH92 (protein)
chain: MTNFYKVFLAVFILVCCNISHAAVSFIGSTENDVGPSQSSYSRTHAMDNLPFVYNTGYNIGYQNANVWRISGGFCVGLDGKVDLPVVGSLDGQSIYGLTEEVGLLIWMGDTNYSRGTAMSGNSWENVFSGWCVGNYVSTQGLSVHVRPVILKRNSSAQYSVQKTSIGSIRMRPYNGSSAGSVQTTVNFSLNPFTLNDTVTSCRLLTPSAVNVSLAAISAGQLPSSGDEVVAGTTSLKLQCDAGVTVWATLTDATTPSNRSDILTLTGASTATGVGLRIYKNTDSTPLKFGPDSPVKGNENQWQLSTGTETSPSVRLYVKYVNTGEGINPGTVNGISTFTFSYQ
[1]
  glycan array binding signal (z-score): 1.92
[2]
  glycan array binding signal (z-score): 3.63
GlcNAc(b1-3)GalNAc
  glycan array binding signal (z-score): 2.71
[3]
  glycan array binding signal (z-score): 3.49
[4]
  glycan array binding signal (z-score): 3.94
[5]
  glycan array binding signal (z-score): 4.3
[6]
  glycan array binding signal (z-score): 3.3
[7]
  glycan array binding signal (z-score): 0.197
[8]
  glycan array binding signal (z-score): -0.28
[9]
  glycan array binding signal (z-score): -0.275
[10]
  glycan array binding signal (z-score): 3.15
[11]
  glycan array binding signal (z-score): 3.4
GlcNAc(b1-6)GalNAc
  glycan array binding signal (z-score): 3.67
Kdn(a2-3)Gal(b1-3)GlcNAc
  glycan array binding signal (z-score): -0.308
Kdn(a2-3)Gal(b1-4)GlcNAc
  glycan array binding signal (z-score): -0.316
[12]
  glycan array binding signal (z-score): -0.31
[13]
  glycan array binding signal (z-score): -0.289
Man(a1-2)Man(a1-3)Man
  glycan array binding signal (z-score): -0.302
[14]
  glycan array binding signal (z-score): -0.307
[15]
  glycan array binding signal (z-score): -0.312
[16]
  glycan array binding signal (z-score): -0.315
[17]
  glycan array binding signal (z-score): -0.309
Man(a1-3)[Man(a1-6)]Man
  glycan array binding signal (z-score): -0.309
[18]
  glycan array binding signal (z-score): -0.148
[19]
  glycan array binding signal (z-score): -0.311
[20]
  glycan array binding signal (z-score): -0.265
Man(b1-4)GlcNAc
  glycan array binding signal (z-score): -0.315
Neu5Ac(a2-3)Gal
  glycan array binding signal (z-score): -0.277
[21]
  glycan array binding signal (z-score): -0.308
[22]
  glycan array binding signal (z-score): -0.313
[23]
  glycan array binding signal (z-score): -0.2
[24]
  glycan array binding signal (z-score): -0.312
[25]
  glycan array binding signal (z-score): -0.29
[26]
  glycan array binding signal (z-score): -0.312
[27]
  glycan array binding signal (z-score): -0.226
[28]
  glycan array binding signal (z-score): -0.312
[29]
  glycan array binding signal (z-score): -0.097
[30]
  glycan array binding signal (z-score): -0.309
